About 2,200 (0.71%) of roughly 310,000 compounds showed an effect of 50% or more. Effects have a minus sign here. This is one part of the list.
target: human ether-à-go-go-related gene (hERG) potassium channel (human, UniProt Q12809); assay: primary screen, population patch clamp on CHO cells stably expressing hERG
Sequence (Q12809 whole entry, looked up): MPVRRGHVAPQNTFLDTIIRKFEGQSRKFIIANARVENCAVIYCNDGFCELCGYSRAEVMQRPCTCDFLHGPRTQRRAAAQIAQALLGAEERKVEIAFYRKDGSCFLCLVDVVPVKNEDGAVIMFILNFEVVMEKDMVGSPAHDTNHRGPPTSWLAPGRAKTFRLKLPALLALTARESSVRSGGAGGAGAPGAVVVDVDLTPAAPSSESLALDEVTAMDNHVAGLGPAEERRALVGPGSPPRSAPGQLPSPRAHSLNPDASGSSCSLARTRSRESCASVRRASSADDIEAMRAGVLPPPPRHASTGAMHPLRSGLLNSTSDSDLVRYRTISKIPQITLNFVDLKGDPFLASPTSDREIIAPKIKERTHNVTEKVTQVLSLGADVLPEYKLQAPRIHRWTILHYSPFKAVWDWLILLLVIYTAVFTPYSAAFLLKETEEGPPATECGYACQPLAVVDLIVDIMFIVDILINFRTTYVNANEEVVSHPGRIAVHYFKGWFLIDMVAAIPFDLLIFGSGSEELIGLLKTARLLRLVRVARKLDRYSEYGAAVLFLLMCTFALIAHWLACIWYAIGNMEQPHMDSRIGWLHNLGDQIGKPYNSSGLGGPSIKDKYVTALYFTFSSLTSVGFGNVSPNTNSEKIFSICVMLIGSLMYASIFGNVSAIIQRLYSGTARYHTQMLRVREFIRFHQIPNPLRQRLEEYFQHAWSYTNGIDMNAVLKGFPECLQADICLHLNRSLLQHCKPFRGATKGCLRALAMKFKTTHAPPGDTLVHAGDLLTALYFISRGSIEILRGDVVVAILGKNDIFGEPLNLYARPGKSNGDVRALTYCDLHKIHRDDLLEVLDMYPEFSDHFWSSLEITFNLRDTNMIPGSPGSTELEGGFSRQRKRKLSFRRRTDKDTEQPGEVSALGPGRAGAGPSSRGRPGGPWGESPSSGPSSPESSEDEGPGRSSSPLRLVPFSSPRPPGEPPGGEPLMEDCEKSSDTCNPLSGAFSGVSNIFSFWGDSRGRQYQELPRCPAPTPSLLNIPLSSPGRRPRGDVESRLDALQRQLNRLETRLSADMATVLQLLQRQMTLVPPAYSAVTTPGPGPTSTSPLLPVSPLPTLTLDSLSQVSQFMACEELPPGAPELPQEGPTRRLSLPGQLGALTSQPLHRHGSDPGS

SMILES	hERG current change (%, negative = inhibition) at 1uM [%]
COCCn1c(=NC(=O)C(C)(C)C)sc2cc([N+](=O)[O-])ccc21	4.88
Cc1cc(C)c(C(N)=O)c(Nc2cccc(Cl)c2C)n1	10.9
CCOc1ccc(-n2c(C)nc3cc(C(=O)NCc4ccco4)ccc32)cc1	-1.02
Cc1ccc(S(=O)(=O)N(c2ccccc2)C2CCS(=O)(=O)C2)cc1 (centres unmarked)	5.92
COc1ccc(CCNC(=O)Oc2ccccc2)cc1OC	12.4
O=C(NC1CCCCC1)c1cccc(COCC(F)(F)F)c1	5.99
Cc1ccc2cc(C#N)c(N3CCCN(C(=O)c4cnccn4)CC3)nc2c1	-2.93
Cc1ccc(-c2ccc(=O)n(CC(=O)NCCC(C)C)n2)cc1	7.78
CCc1ccccc1NC(=O)COc1ccc(N2CC(C(N)=O)CC2=O)cc1 (centres unmarked)	16.7
CCCCCOc1ccc(C(C)(O)C(CN2CCOCC2)c2ccccc2)cc1 (centres unmarked)	-3.26
CCN(CC)S(=O)(=O)c1ccc(N/N=C(\C)c2ccc(OC)cc2O)nc1	10.1
CCOC(=O)C1(CC2CCCCO2)CCN(Cc2nc(C(C)C)cs2)CC1 (centres unmarked)	10.2
CCCCN(c1ccccc1)c1ncnc2nc[nH]c12	-1.81
Cn1c(N)c(C(=O)COC(=O)C2CCCC2)c(=O)n(C)c1=O	6.43
Cc1ncoc1C(=O)Nc1ncc([N+](=O)[O-])s1	6.64
COc1ccc(CCNC(=O)CSc2nncn2N)cc1OC	12.7
CCc1ccc(NS(=O)(=O)c2cccs2)cc1	3.87
CCOC(=O)N1CCN(C(=O)c2ccc(Cn3c(=S)[nH]c4cc5c(cc4c3=O)OCO5)cc2)CC1	0.169
O=C(N/C=C\c1ccccc1)NCc1ccc(Cl)cc1Cl	10.9

SMILES	hERG current change (%, negative = inhibition) at 1uM [%]
CC(C)(C)c1cc(CSC(=S)NC2CCS(=O)(=O)C2)c(Br)c(C(C)(C)C)c1 (centres unmarked)	8.93
O=C(Nc1cccc(Cl)c1)N1C[C@H]2C[C@@H](C1)c1cccc(=O)n1C2	6.71
COc1ccc(CCNC(=O)c2ccc(=O)[nH]c2)cc1	9.9
O=c1cc2c(nn1Cc1ccccc1)-c1ccccc1CC2	8.94
C=CCn1c(SCc2nc3sc(C(=O)O)c(C)c3c(=O)[nH]2)nnc1-c1ccccc1	2.8
COc1ccc(OC)c2[nH]c(=O)c(CCNC(=O)c3ccc(Br)o3)cc12	7.53
COc1cccc(-n2c(=O)c3sccc3n(CC(=O)NC3CCCC3)c2=O)c1	11.2
CCOC(=O)C1=C(C)NC(C)=C(C(=O)OCC)C1c1cccs1	8.78
C=CCNS(=O)(=O)CC12CCC(CC1=O)C2(C)C (centres unmarked)	6.81
CCOC(=O)C(=O)C1=C(N2CCOCC2)/C(=C\c2ccc(F)cc2)CC1	7.93
Cc1ccc(NC(=O)CN2C(=O)S/C(=C\c3cc(C)n(C)c3C)C2=O)cc1	5.99
O=C(Nc1c(C(=O)N2CCOCC2)cnn1-c1ccccc1)c1ccc(F)cc1	12.2
Clc1ccc(Cn2ncc3c(N4CCCCC4)ncnc32)c(Cl)c1	12.3
Cc1ccc2cc(CN(C(=O)c3cccs3)c3ccccc3)c(=O)[nH]c2c1	17.6
O=C(CSc1oc(-c2ccc(F)cc2)nc1S(=O)(=O)c1ccc(F)cc1)NCC1CCCO1 (centres unmarked)	17.9
O=C(CCCC(=O)N(CC(=O)NC1CCCC1)c1cccc(F)c1)Nc1ccccn1	9.73
Cc1sc2nc[nH]c(=O)c2c1-c1ccc(F)cc1	17.2
Cc1cccc(Nc2nc(N)nc(CSc3nccc(C)n3)n2)c1	10.5
Cc1nc(CNS(=O)(=O)c2cc(F)ccc2F)cs1	21.9

SMILES	hERG current change (%, negative = inhibition) at 1uM [%]
CC1CCCCN1CCNC(=O)C1CCCN(S(=O)(=O)c2cccc3nsnc23)C1 (centres unmarked)	8.22
CO.COC(=O)c1cccc(C(=O)Nc2cnc3ccccc3c2)n1	7.29
CCC(=O)N1CCN(c2ccccc2NC(=O)Cc2ccccc2)CC1	0.0591
CSc1nnc(-c2cc3c(s2)-c2ccccc2CC3)o1	3.5
COc1ccc(CNC(=O)c2cc(COc3c(F)cccc3F)on2)cc1OC	7.12
Cc1cccc(NC(=O)[C@@H](CC(C)C)NC(=O)[C@@H]2Cc3ccccc3CN2)c1	-10.8
COc1ccc(S(=O)(=O)N2CCCCCC2)cc1NC(=O)c1c2c(nc3ccccc13)CCN(Cc1ccccc1)C2	2.13
O=C(CSc1ccc2c(c1)OCCO2)Nc1ccc(Br)cc1	2.11
Cc1ccc(Nc2nc(N)nc(CSc3nnnn3-c3ccccc3)n2)cc1	2.4
COc1ccc(CNC(=O)CC(NC(N)=O)c2ccccc2Cl)cc1OC (centres unmarked)	13.9
CC1Cc2cc(/C(O)=C3/C(=O)C(=O)N(CCCn4ccnc4)C3c3ccc(Br)cc3)ccc2O1 (centres unmarked)	10.6
Cc1ccccc1NC1=NC(=S)N(c2ccccc2)C12CCOC(C)(C)C2 (centres unmarked)	10.5
COCCCn1cc(C(=O)c2cc(Br)ccc2O)cc(C#N)c1=O	12.8
CCOc1cc(/C=N/Nc2nc(=O)[nH]nc2C)ccc1O	14.7
Cc1cc(C)n(-c2ccc(C(=O)O)cc2)n1	11.9
O=C(O)CC(NS(=O)(=O)Cc1ccccc1)c1cccc([N+](=O)[O-])c1 (centres unmarked)	14.7
Cc1ccc(NC(=O)c2ccco2)c(NC(=O)c2cccs2)c1	10.9
O=C(NCC1c2ccccc2CCN1C(=O)CN1CCOCC1)C1CCCCC1 (centres unmarked)	4.11

Reference: publication PMC4336329 (PLoS ONE, 2015)
